From PubChem BioAssay AID1745853 (National Center for Advancing Translational Sciences (NCATS), 2022) come the findings set out here.

Each structure is given as a SMILES string. “And” between values parts separate entries of the source, which are not always exact repeats. Equal entries are not always repeated. Some of the results follow. The main result of the screen is listed elsewhere. These columns were measured beside it and carry no call.

Holding throughout (assay): Primary Screen for Target Class Profiling of Small Molecule Inhibitors of Methyltransferases
The target of assay [1] is Glycine N-methyltransferase (Homo sapiens) (UniProt Q14749). The note with it: purified enzyme, MTase-Glo SAH luminescence; measured here: GNMT inhibition; at 40 µM; stronger effect = lower value. The essentials: (§1)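 Each enzyme was reacted with SAM and its substrate, with compounds tested once at 40 uM; SAH formed was read by MTase-Glo luminescence.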
The target in assay [2] is Guanidinoacetate N-methyltransferase (Homo sapiens) (UniProt Q14353). The note with it: purified enzyme, MTase-Glo SAH luminescence; measured here: GAMT inhibition; at 40 µM; stronger effect = lower value. The essentials:
as §1

Assay [3] addresses Histamine N-methyltransferase (Homo sapiens) (UniProt P50135). Particulars: purified enzyme, MTase-Glo SAH luminescence; measured here: HNMT inhibition; at 40 µM; stronger effect = lower value. The essentials:
as §1

Assay [4] addresses Nicotinamide N-methyltransferase (Homo sapiens) (UniProt P40261). Particulars: purified enzyme, MTase-Glo SAH luminescence; measured here: NNMT inhibition; at 40 µM; stronger effect = lower value. The method, boiled down: as §1
Assay [5] addresses Phenylethanolamine N-methyltransferase (Homo sapiens) (UniProt P11086). Particulars: purified enzyme, MTase-Glo SAH luminescence; measured here: PNMT inhibition; at 40 µM; stronger effect = lower value. The essentials: as §1
% is set by controls: 0 for no effect and ±100 for the full control effect.

As to `Cc1ccc(N2C(=O)c3cc4sccc4n3CC2(C)C(=O)NC2CCCC2)cc1C` (stereo not drawn), the activity change, negative = inhibition in assay [1] was -4.77%; in assay [2], 2.07%; in assay [3], -4.14%; in assay [4], -4%; in assay [5] it was -8.58%.
`C=C1CCC[C@]2(C)C[C@]3(O)OC(=O)C(C)=C3C[C@@H]12`: the activity change, negative = inhibition in assay [1] was -5.86%; in assay [2] it was -6.07%; in assay [3], 1.65%; in assay [4], -18.7%; in assay [5], -1.4%.
In the case of `NC(=O)N1CCCC(C(=O)NCCCn2nccc2C2CC2)C1` (stereo not drawn), the activity change, negative = inhibition in assay [1] was -1.86%; in assay [2], 0.817%; in assay [3], 1.75%; in assay [4], -6.83%; in assay [5], 13.1%.
Consider `C[C@@H]1O[C@@H](O[C@H]2[C@H](O)[C@@H](O)[C@H](OC(=O)[C@]34CCC(C)(C)C[C@H]3C3=CCC5[C@@]6(C)CC[C@H](O[C@@H]7O[C@H](C(=O)O)[C@@H](O)[C@H](O)[C@H]7O)C(C)(C)C6CC[C@@]5(C)[C@]3(C)CC4)O[C@@H]2CO)[C@H](O)[C@H](O)[C@H]1O` (stereo partly drawn), for which the activity change, negative = inhibition in assay [1] is 1.92%; in assay [2], 6.08%; in assay [3] it was 7.21%; in assay [4], -7.57%; in assay [5], 8.82%.
As for `Cc1cnc(CN(C)Cc2cn(-c3ccccc3)nn2)[nH]1`, the activity change, negative = inhibition is -6.21% in assay [1]; -5.43% in assay [2]; -6.92% in assay [3]; -7.07% in assay [4]; -11% in assay [5].
For the compound `COc1ccc(CNC(=O)CCn2ccc3cc(S(=O)(=O)N4CCCCC4)ccc32)cc1`, the activity change, negative = inhibition in assay [1] came to 3.51%; in assay [2] it was 4.11%; in assay [3] it was 9.02%; in assay [4], 1.44%; in assay [5], 3.26%.
The like results for `CCC1c2nccn2CCCN1C(=O)Cn1c(=O)oc2ccccc21` (stereo not drawn) were, in that order, -6.79%, -10.8%, -3.39%, -8.94% and -8.78%.
Turning to `CCNC(=O)N1CCOc2ccc(CCC(=O)N3CCCCC3c3cccnc3)cc2C1` (stereo not drawn), the activity change, negative = inhibition in assay [1] is -3.34%; in assay [2], -2.75%; in assay [3] it was -27.9%; in assay [4], -10.2%; in assay [5], -7.17%.
In the case of `O=C(Nc1ccc2[nH]nc(-c3ccncc3)c2c1)[C@@H]1CCN(CC(=O)N2CCN(c3ccc(-c4ncccn4)cc3)CC2)C1`, the activity change, negative = inhibition in assay [1] is -15.8% and -16.4%; in assay [2] it was -1.99%; in assay [3], -7.12% and -5.48%; in assay [4], -19.1% and 11.3%; in assay [5], -16.8% and 40.4%.
As to `CC1(C)CC[C@]2(C(=O)O[C@@H]3O[C@H](CO)[C@@H](O)[C@H](O)[C@H]3O)CC[C@]3(C)C(=CCC4[C@@]5(C)C[C@@H](O)[C@H](O)[C@](C)(C=O)C5CC[C@]43C)[C@@H]2[C@@H]1O` (stereo partly drawn), the activity change, negative = inhibition in assay [1] was -4.42%; in assay [2] it was -2.05%; in assay [3] it was 2.55%; in assay [4], -15.9%; in assay [5], 0.647%.
The like results for `Cc1cccc(-c2nnn3c2nc(NCc2ccccc2)c2ccccc23)c1` were, in that order, -2.83%, 5.52%, -3.69%, 1% and -3.13%.
Consider `COc1ccccc1N1CCN(C(=O)CC[C@]23CC[C@](C)(O)C[C@H]2C(C)(C)C[C@@H]3NC(=O)c2cccnc2)CC1`, for which the activity change, negative = inhibition is -3.47% in assay [1]; -8.04% in assay [2]; -11.4% in assay [3]; -6.28% in assay [4]; -3.23% in assay [5].
`Cc1cc(C)c(C#N)c(N2CCC3(CCC(=O)N(CC(C)O)C3)CC2)n1` (stereo not drawn): the activity change, negative = inhibition is -2.07% in assay [1]; -1.48% in assay [2]; -1.66% in assay [3]; -0.979% in assay [4]; -6.5% in assay [5].
In the case of `Nc1ncnc2c1c(I)cn2C1OC(CO)C(O)C1O` (stereo not drawn), the results for the activity change, negative = inhibition in assay [2], in assay [4] and in assay [5] were -96.8%, -99.2% and -99.1%, respectively.
Turning to `CC(CCc1ccccc1)NC(=O)c1cc2n(n1)CC(C)(C(=O)NC1CCCCC1)N(C)C2=O` (stereo not drawn), the activity change, negative = inhibition is -1.66% in assay [1]; 1.31% in assay [2]; -2.72% in assay [3]; 1.95% in assay [4]; -0.363% in assay [5].
Turning to `Cc1cc2c(cc3n2CC(C)(C(=O)NC2CCCCCC2)N(c2cc(Cl)ccc2C)C3=O)o1` (stereo not drawn), the activity change, negative = inhibition was 3.49% in assay [1]; -1.84% in assay [2]; 1.14% in assay [3]; 3.29% in assay [4]; 2.98% in assay [5].
Turning to `N=C(N)SCCN`, the activity change, negative = inhibition was -7.21% in assay [1]; 5.39% in assay [2]; -50.8% in assay [3]; -10.1% in assay [4]; 5.89% in assay [5].
Consider `O=C(c1cc(Br)cn2ccnc12)N1CCCC1`, for which the activity change, negative = inhibition in assay [1] was 0.084%; in assay [2], -0.316%; in assay [3], -1.39%; in assay [4], -9.15%; in assay [5] it was -17.3%.
For the compound `O=C(NCCc1ccc(Cl)cc1)c1nc(-c2ccc(Cl)cc2Cl)c2ccccn12`, the activity change, negative = inhibition in assay [1] was -4.7%; in assay [2] it was -5.23%; in assay [3], -3.17%; in assay [4], -8.15%; in assay [5] it was -4.53%.
Take `O=C(CNC(=O)c1cccc(-c2ccc(C(F)(F)F)cc2)c1)NCC(F)(F)F`: the activity change, negative = inhibition in assay [1] was -7.13%; in assay [2] it was -9.33%; in assay [3] it was -5.53%; in assay [4] it was -14%; in assay [5] it was -7.67%.
Regarding `CC1CCC(NC(=O)C2(C)Cc3ccccc3C(=O)N2Cc2ccccc2)CC1` (stereo not drawn), the activity change, negative = inhibition in assay [1] is -6.25%; in assay [2], 0%; in assay [3], 1.52%; in assay [4], 0.098%; in assay [5] it was -5.01%.
Regarding `CCOC(=O)c1cc2n(n1)CC(C)(C(=O)NC1CCCCC1)N(c1ccc(F)cc1F)C2=O` (stereo not drawn), the activity change, negative = inhibition was -5.14% in assay [1]; -0.371% in assay [2]; -2.77% in assay [3]; -8.88% in assay [4]; -6.64% in assay [5].
The matching figures for `O=C(Nc1ccc(Br)cc1F)N1CCn2cccc2C1Cc1ccccc1` (stereo not drawn): 10.5%, 0%, 7.02%, 0.226% and 1.95%.
As for `COc1cccc(CNc2nc3c(-c4cccc(C)c4)nnn3c3ccccc23)c1`, the activity change, negative = inhibition in assay [1] was -4%; in assay [2], 2%; in assay [3], 2.08%; in assay [4], -12.9%; in assay [5], -5%.
Regarding `O=c1[nH]c2ccc(S(=O)(=O)Nc3ccc(F)c(Cl)c3)cc2[nH]1`, the activity change, negative = inhibition in assay [1] is 3.2%; in assay [2], 1.16%; in assay [3] it was 6.84%; in assay [4], -1.73%; in assay [5] it was -9.59%.
Turning to `CC1CCCCC1NC(=O)C1(C)Cn2c(nc3ccccc32)C(=O)N1Cc1ccc(Cl)cc1` (stereo not drawn), the activity change, negative = inhibition in assay [1] is -1.95%; in assay [2], 4.85%; in assay [3] it was 2.68%; in assay [4] it was -15.6%; in assay [5], -4.87%.
As to `COc1cccc(N2CCN(c3ccc4nnc(CCC(=O)NCCC(C)C)n4n3)CC2)c1`, the activity change, negative = inhibition turned out to be 7.36% in assay [1]; 0% in assay [2]; 7.87% in assay [3]; 5.14% in assay [4]; 5.62% in assay [5].
In the case of `Cc1nn(C)c(C)c1CCCN(C)C(=O)c1ccc2c(c1)C(O)CCCCCN2C` (stereo not drawn), the activity change, negative = inhibition in assay [1] is -6.82%; in assay [2] it was -7.93%; in assay [3], -4.72%; in assay [4], -18.3%; in assay [5], -3.92%.
The like results for `Cc1cc(S(=O)(=O)N2CCC(n3c(=O)[nH]c4ccccc43)CC2)ccc1-n1cnnn1` were, in that order, 1.25%, 0%, 3.16%, 9.13% and 1.22%.
